Experimental data taken from PubChem BioAssay AID602332 (National Center for Advancing Translational Sciences (NCATS), 2012).
The whole screen tested about 420,000 compounds, of which about 75 (0.02%) were called active. The inconclusive results got no clear call from the source; some entries with a clear call stand among them for comparison. Calls follow the shape of the dose curve; as a rule, active = well fitted activation curve with a large enough effect; inconclusive = small, poorly fitted or top-dose-only effect; inactive = no such curve, though single readings can be large or run the other way. Potencies of inconclusive entries are doubtful fits and often do not repeat.
Potency is read from the fitted curve at half-maximal effect; tags tell the direction and shape of the fitted curve.

Test: qHTS for Inducers of the Endoplasmic Reticulum Stress Response (ERSR) in Human Glioma: qHTS; also: nearly all actives have a fitted effect of over 35% in size; as to activation: % of control where 0% means no effect
Details: U87-MG GRP78 promoter luciferase reporter, 16 h; activation: hits give high values
In short: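 ERSR induction read as luciferase luminescence (Bright-Glo, 10 min at room temperature) in stably transfected human U87-MG glioma cells exposed to compounds for 16 h, using GRP78 as sensor.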
In the case of `Cc1cc(C)cc(NC(=O)CSc2oc(-c3ccco3)nc2S(=O)(=O)c2ccccc2)c1`, the activation is reported as inactive: -2.16%. In the case of `Cc1nc(CCNC(=O)CC2C(=O)NCCN2Cc2ccccc2)sc1C` (stereo not given), the Potency is reported as inconclusive: 28.2 µM [activator, single point]. For `CCOC(=O)Cn1c(=O)oc2cc(S(=O)(=O)Nc3ccc(F)cc3)ccc21`, the Potency was inconclusive: 50.1 µM [activator, single point]. In the case of `CSc1ccc(S(=O)(=O)NCC(=O)OCC(=O)N(Cc2ccccc2)C(C)C)cc1[N+](=O)[O-]`, the activation is reported as inactive: 15.7%. In the case of `O=C(NNC(=O)c1ccc(O)cc1O)c1ccc(Cl)cc1`, the Potency is reported as inconclusive: 2.82 µM [activator, full curve, poor fit]. For `Cc1ccc(C(=O)NC(=C(Cl)Cl)S(=O)(=O)c2ccc(C)cc2)cc1`, the Potency was inconclusive: 44.7 µM [activator, single point]. For `O=C(N/N=C/c1cc(Cl)cc([N+](=O)[O-])c1O)NC12CC3CC(CC(C3)C1)C2`, the activation was inactive: -1.87%. With `Cc1ccc(NC(=O)CCn2nnc3ccccc32)c(C)c1` the Potency was inconclusive: 25.1 µM [activator, single point]. With `CC(C)(O)CNC(=O)Nc1ccc(Cl)c(Cl)c1` the activation was inactive: 2.44%. With `COc1cc(/C=C2/NC(=O)N(c3cccc(Cl)c3)C2=O)ccc1O` the Potency was inconclusive: 3.98 µM [activator, full curve, poor fit]. For `CCOC(=O)COc1c(-c2ccc(OC)cc2)oc2ccccc2c1=O`, the activation was inactive: -0.0418%. With `O=C(/C=C/c1c(F)cccc1Cl)c1ccc(F)cc1` the Potency was inconclusive: 28.2 µM [activator, single point]. In the case of `CCOC(=O)C1CCN(C(=O)Cn2nc(C)n3c(cc4sccc43)c2=O)CC1`, the Potency is reported as inconclusive: 50.1 µM [activator, single point]. For `C=CCOc1ccc(C2C(C(=O)c3cccs3)=C(O)C(=O)N2c2nnc(C)s2)cc1` (stereo not given), the Potency was inconclusive: 50.1 µM [activator, single point]. With `O=C(Nc1nc(NC(=O)c2ccco2)n(-c2ccccc2)n1)c1ccccc1` the Potency was inconclusive: 11.2 µM [activator, single point]. With `CC(=O)c1ccc(NC(=O)C(C)N(C)CC(=O)Nc2ccc(Cl)cc2)cc1` (stereo not given) the Potency was inconclusive: 50.1 µM [activator, single point]. For `COc1cc(C)cc(C(=O)C=Cc2ccccc2)c1O`, the Potency was inconclusive: 12.6 µM [activator, single point]. With `CN(Cc1c(C(=O)N/N=C/c2c(F)cccc2Cl)nnn1-c1nonc1N)C1CCCCC1` the Potency was inconclusive: 28.2 µM [activator, single point]. In the case of `COc1ccc(OC)c(C(=O)CC2OC(=O)c3ccccc32)c1` (stereo not given), the Potency is reported as inconclusive: 44.7 µM [activator, partial curve, poor fit]. With `Cc1noc(C)c1COC(=O)c1cc(C)n(-c2ccccc2)c1C` the Potency was inconclusive: 10 µM [activator, partial curve, poor fit]. With `CCOC(=O)c1ccc(NC(=S)NCc2ccc(S(N)(=O)=O)cc2)cc1` the Potency was inconclusive: 28.2 µM [activator, single point]. For `CC(C)Oc1ccc(C(=O)/C=C2/C(=O)Nc3ccccc32)cc1`, the Potency was inconclusive: 11.2 µM [activator, single point]. In the case of `Oc1ccc(/C=N/N(c2ccccc2)c2ccccc2)cc1O`, the Potency is reported as inconclusive: 31.6 µM [activator, partial curve]. For `Cc1cccc(-c2nnc(-c3cccc(NC(=O)Cc4cccs4)c3)o2)c1`, the Potency was inconclusive: 8.91 µM [activator, partial curve, poor fit]. With `CCc1ccc(Nc2n[n+](-c3ccccc3)c(-c3cc(OC)c(OC)cc3Br)s2)cc1` the activation was inactive: -0.498%. In the case of `CC(C)(C)OC(=O)N1CCN(C(=O)c2[nH]cnc2C(=O)N[C@@H](Cc2ccccc2)C(=O)OCc2ccccc2)CC1`, the Potency is reported as inconclusive: 22.4 µM [activator, single point]. With `COc1ccc(N2CCN(C(=O)CSc3nc(-c4ccc(C(C)C)cc4)no3)CC2)cc1` the activation was inactive: -4.67%. For `Cc1ccc(CNC(=O)CCc2cn(C)c3ccccc23)cc1`, the Potency was inconclusive: 50.1 µM [activator, single point]. For `COC(=O)c1ccc2c(c1)C(C)(C)C(/C=C/c1ccc(OC)c(OC)c1OC)=[N+]2C`, the activation was inactive: -18.3%. For `CC(C)CCCC(C)C1CC(=O)C2=C3CCC4CC(O)CCC4(C)C3CCC21C` (stereo not given), the Potency was inconclusive: 39.8 µM [activator, partial curve]. For `CC(=O)c1cccc(NC(=O)c2sc3nc4n(c(=O)c3c2C)CCCC4)c1`, the Potency was inconclusive: 44.7 µM [activator, single point]. In the case of `Oc1ccccc1-c1nc(-c2cccs2)c(-c2cccs2)[nH]1`, the activation is reported as inactive: -1.89%. With `O=C(O)c1ccccc1CSc1ncccc1C(=O)O` the activation was inactive: -1.07%. For `CCOC(=O)N/N=C\c1ccc(OC(=O)c2ccco2)cc1`, the activation was inactive: 5.11%. With `COc1ccc(NC(=O)c2cccc(S(=O)(=O)N3CCc4ccccc43)c2)c(OC)c1` the activation was inactive: -2.4%. With `Oc1ccc(Br)cc1C1C=C(c2ccc3c(c2)OCO3)NC(c2ccc(Br)cc2)N1` (stereo not given) the Potency was inconclusive: 17.8 µM [activator, single point]. In the case of `COc1cc(NC(=O)c2ccc3c(c2)OCCO3)ccc1NC(=O)c1ccccc1Cl`, the Potency is reported as inconclusive: 2.24 µM [activator, partial curve, poor fit]. With `CC1CCN(CC[S-])CC1.O.O.[Cl][Pt]` the Potency was inconclusive: 31.6 µM [activator, single point]. In the case of `Oc1cc(NCc2ccc(F)cc2)cc2cccnc12`, the Potency is reported as inconclusive: 10 µM [activator, partial curve, poor fit]. With `O=C1CN(C(=O)COC(=O)CCS(=O)(=O)c2ccccc2)c2ccccc2N1` the Potency was inconclusive: 50.1 µM [activator, single point]. For `CCC1C(C#N)=C(SCC(N)=O)NC2=C1C(=O)CC(C)(C)C2` (stereo not given), the activation was inactive: -5.66%. For `C=CCSc1nc(N)c2c(C)c(C)sc2n1`, the Potency was inconclusive: 8.91 µM [activator, partial curve, poor fit]. For `Cc1cc(SC#N)cc(C)c1NC(=O)CCl`, the activation was inactive: -15.1%. In the case of `C=CCn1c(SCC(=O)NCC2CCCO2)nc2sc(C)c(C)c2c1=O` (stereo not given), the Potency is reported as inconclusive: 25.1 µM [activator, single point]. With `Cc1ccc(CSc2nnc(SCC(=O)N/N=C/C=C/c3ccco3)s2)cc1` the activation was inactive: -9.85%. For `CC(C)c1[nH]nc2c1C(C1C=CCCC1)C(C#N)=C(N)O2` (stereo not given), the activation was inactive: -12.9%. In the case of `c1ccc(-c2cc3n(c2)CCc2ccccc2-3)cc1`, the Potency is reported as inconclusive: 2.24 µM [activator, full curve, poor fit]. With `O=C(Nc1cccc2ccccc12)C(=O)C1C(=O)Nc2ccccc21` (stereo not given) the Potency was inconclusive: 28.2 µM [activator, single point]. With `COc1ccc(Br)cc1C1NC(c2ccc3c(c2)OCO3)=CC(c2ccccc2O)N1` (stereo not given) the Potency was inconclusive: 50.1 µM [activator, partial curve, poor fit]. In the case of `COc1ccc(C(C[N+](=O)[O-])c2c(-c3ccccc3)cc3ccccn23)cc1` (stereo not given), the Potency is reported as inconclusive: 44.7 µM [activator, single point]. In the case of `O=c1cc(N2CCN(c3cccc(Cl)c3)CC2)[nH]c(=O)n1C1CCCCC1`, the activation is reported as inactive: -2.32%. In the case of `Cc1ccc(Nc2ccc(C(N)=O)cc2[N+](=O)[O-])cc1C`, the activation is reported as inactive: 0.182%. With `CCC1=C/C(=C/c2sc3ccccc3[n+]2CC)CC(C)(C)C1` the Potency was inconclusive: 44.7 µM [activator, partial curve, poor fit]. With `O=C(CCNC(=O)c1ccc(Cl)cc1)NCC(c1ccco1)N1CCCCC1` (stereo not given) the activation was inactive: -2.46%. In the case of `COc1cc(/C=C(/C(=O)c2cccs2)c2nc3ccccc3[nH]2)ccc1O`, the Potency is reported as inconclusive: 14.1 µM [activator, single point]. With `NNC(=O)c1ccc(OCC2CC(c3ccc(Cl)cc3)=NO2)cc1` (stereo not given) the Potency was inconclusive: 11.2 µM [activator, full curve, poor fit]. In the case of `c1ccc(-n2cc(CNCCc3cscn3)c(-c3ccc4c(c3)OCO4)n2)cc1`, the activation is reported as inactive: -2.36%. With `CSc1ccc(S(=O)(=O)NCC(=O)OC(C)C(=O)NCc2ccccc2)cc1[N+](=O)[O-]` (stereo not given) the Potency was inconclusive: 50.1 µM [activator, single point]. With `O=C(O)c1ccccc1Sc1c([N+](=O)[O-])cc(C(F)(F)F)cc1[N+](=O)[O-]` the Potency was inconclusive: 11.2 µM [activator, single point]. In the case of `CSc1ccccc1NC(=O)CCS(=O)(=O)c1nc(-c2ccc3c(c2)OCO3)cc(C(F)(F)F)n1`, the Potency is reported as inconclusive: 12.6 µM [activator, single point]. For `COc1ccc(N2C(=O)C(Cl)=C(Nc3ccccc3O)C2=O)cc1`, the Potency was inconclusive: 10 µM [activator, full curve, poor fit]. In the case of `COc1ccc(C(=O)Nc2nnc(Cc3ccccc3)s2)c(OC)c1`, the Potency is reported as inconclusive: 11.2 µM [activator, single point]. For `Clc1cnc(N/N=C/c2cccs2)c(Cl)c1`, the activation was inactive: 0.316%. With `CCCc1ccc(C(=O)CCC(=O)O)cc1` the Potency was inconclusive: 7.08 µM [activator, partial curve, poor fit]. In the case of `Cc1ccc(O)c(N/C=C/C(=O)c2ccc(F)cc2)c1`, the Potency is reported as inconclusive: 2.24 µM [activator, partial curve, poor fit].
